Test results from the supplement of paper PMC3334620.
In all, about 33,000 sequences were measured (“E-score (-0.5 to 0.5)”: median about -0.012, highest 2% from about 0.27 on). Some of the results follow.

Target: T1, Vhr1 (UniProt P40522)
T1 sequence: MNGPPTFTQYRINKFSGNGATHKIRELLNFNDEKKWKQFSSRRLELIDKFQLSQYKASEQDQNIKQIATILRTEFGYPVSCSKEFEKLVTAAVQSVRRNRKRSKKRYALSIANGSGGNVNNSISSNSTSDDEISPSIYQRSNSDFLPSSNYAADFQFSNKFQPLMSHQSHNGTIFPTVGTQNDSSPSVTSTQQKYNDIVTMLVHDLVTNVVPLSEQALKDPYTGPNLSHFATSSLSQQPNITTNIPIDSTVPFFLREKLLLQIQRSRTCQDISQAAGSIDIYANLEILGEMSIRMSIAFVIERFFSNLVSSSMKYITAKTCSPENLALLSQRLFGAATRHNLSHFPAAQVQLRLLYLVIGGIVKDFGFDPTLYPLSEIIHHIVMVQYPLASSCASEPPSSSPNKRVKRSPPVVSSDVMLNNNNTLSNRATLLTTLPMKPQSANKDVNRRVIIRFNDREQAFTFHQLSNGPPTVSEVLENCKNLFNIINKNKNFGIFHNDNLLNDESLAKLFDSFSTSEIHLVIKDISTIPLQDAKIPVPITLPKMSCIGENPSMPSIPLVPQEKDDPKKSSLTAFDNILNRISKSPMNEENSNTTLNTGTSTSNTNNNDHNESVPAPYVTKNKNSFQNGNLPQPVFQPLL
Assay: PBM E-score (8-mer binding enrichment) (E-score (-0.5 to 0.5)); higher = stronger / more preferred TF binding; most listed sequences are background and not binding sites
Conditions: protein concentration: 200 nM; construct: GST-full length
In short: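 PURExpress in vitro transcription/translation supplied GST-tagged yeast transcription factors, either full-length or DNA-binding domain. Applied at about 100-200 nM to universal all-10-mer Agilent arrays double-stranded by primer extension, the bound protein was detected with fluorescent anti-GST. E-scores, modified Wilcoxon-Mann-Whitney statistics, were given by the Universal PBM Analysis Suite to ungapped eight-base words pooled with their reverse complements after masliner normalisation.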

Sequence | PBM E-score
ATAAGGAT | 0.133
ACAGCTTA | 0.0222
CTTGAAGA | -0.243
ATTGCGTA | 0.073
AAGTGGCC | -0.124
AAGTACTA | 0.0913
AATGACGT | 0.0585
ATAGCTAT | -0.132
CATCCGCG | -0.00423
TGATCCAA | 0.167
CGGCGTCC | -0.051
CGAGCCCA | 0.086
AGTCGCCC | 0.346
ACCGCTAC | 0.00858
AAGTCATT | -0.0196
CAATGAGC | -0.0675
TATAAAAA | -0.0729
AGAGGTAG | -0.205
GCTGGTAA | -0.148
CGGCATCA | -0.0137
CTCGAGAA | -0.188
AGTAGTTA | 0.0583

Sequence | PBM E-score
GTAAAACA | -0.157
AGTCGGAT | 0.216
CGCTATGA | 0.112
ATGCTAGG | -0.069
AAATCACG | 0.173
CCCTCAGC | -0.0147
CCCGCGGC | 0.272
GGCCTCAA | -0.0529
AGCCCCGG | 0.155
CATACATG | 0.205
GGGCGCGA | 0.195
CTCCAAGC | -0.0811
AGAGGAAG | -0.166
CAGCCTCC | -0.303
ATGTTACG | -0.226
ACTCGCAA | 0.0242
TCCGCAGA | 0.0168
ATCCGCGC | 0.024
AATCTCGG | 0.0762
GATCAACA | -0.0766
CGTGAGAC | 0.0393
AAACCTGG | 0.0771

Sequence | PBM E-score
CACGAGCA | 0.172
AAAAGCTA | -0.202
ATAAAGTA | 0.0422
CACCCTCA | 0.0412
AGTACCCA | 0.154
CTGCTCCC | -0.0909
TCCTTAAA | -0.142
GGGTTTTA | -0.19
ACGCCCGG | -0.0553
CGGGGCTA | -0.19
AAGTCTTG | -0.0478
CTTTACTC | 0.00789
CTTACCAA | 0.00894
CTATACCC | -0.00776
TGTCACAA | 0.127
ACTAACCT | 0.126
CGGACGAG | -0.0824
AATGAATA | 0.0163
GTACCGCA | 0.183
CCAACACG | -0.0359
GCCTGTCC | -0.155
GATGCTGA | 0.0169

Sequence | PBM E-score
ACGGAAAG | -0.0509
GACGCTAC | -0.0631
GGCCGCGA | -0.138
AGGAATTG | -0.00347
ATCCCGGG | 0.0675
CCGAGTAG | 0.1
CAGCTGAA | -0.124
TCTTCACA | 0.0437
CGCACAAC | 0.0778
ATCTCCGA | -0.0578
ATGAAGCC | 0.0626
GTGATATA | 0.0452
CACCTAGC | -0.116
ACTGAGTC | 0.454
ACTCAAAC | 0.118
GACTTACC | 0.125
CTCAGCGC | -0.0842
GGGGGGTA | -0.0399
AACAATTG | 0.0192
ACAACAGT | 0.183
